Results as given in PubChem BioAssay AID463173 (ICCB-Longwood Screening Facility, Harvard Medical School, 2010).
In all, about 52,000 compounds went through this assay and about 4,300 (8.3%) were called active. No stated cut-off is given here; in the data, active means survival mostly below about 52% (no sharp cut-off); inactive means mostly above about 56%. The list shows a part of the results.

test system: DeltatarO mutant; assay: S. aureus survival, RN4220 and DeltatarO strains – OD600, teichoic acid synthesis inhibitors, primary screen (AID 463173); conditions: S. aureus RN4220 wild type/DeltatarO growth, OD600, 18 h, stronger effect = lower value, screened at 18.75 µg/mL (by protocol)

SMILES	survival
CCOC(=O)C1CCCN(C(=O)c2ccc3c(c2)N(Cc2cccc(Cl)c2)C(=O)c2ccccc2S3(=O)=O)C1 (stereo unspecified)	inactive: 64%
COc1ccc(C)cc1NC(=O)CN1C(=O)COc2ccc(S(=O)(=O)N3CCCCCC3)cc21	inactive: 82%
CCCN(C(=O)Cn1c(=O)oc2cc(Cl)ccc21)c1ccc(C(C)C)cc1	active: 15%
CCC1CCc2c(sc(NC(=O)C3c4ccccc4Oc4ccccc43)c2C#N)C1 (stereo unspecified)	inactive: 70%
CCc1ccc(S(=O)(=O)c2cn(C)c3cc(OC)c(OC)cc3c2=O)cc1	inactive: 121%
COc1ccc(-n2ncc3c(=O)n(CC(=O)N4CC(C)CC(C)C4)cnc32)cc1 (stereo unspecified)	inactive: 66%
CCOC(=O)c1nc(Nc2ccccc2C)c2ccccc2n1	inactive: 49%
CCOc1cccc(C2c3[nH]c4ccccc4c3CCN2C(=O)CCc2ccccc2)c1 (stereo unspecified)	inactive: 67%
CCCC1(C(=O)OCC)NC(c2ccccc2F)C2C(=O)N(c3ccccc3)C(=O)C21 (stereo unspecified)	inactive: 88%
CCN(CC)c1ccc(C(=O)N2CCC(c3ccncc3)CC2)cc1	inactive: 88%
O=C(Nc1nc2ccc(Cl)cc2s1)c1ccc(S(=O)(=O)N2CCCC2)cc1	inactive: 117%
Cc1cc(OCCn2cc(C(=O)c3ccco3)c3ccccc32)ccc1Cl	inactive: 53%
COc1ccccc1NC(=O)CSc1oc(-c2ccco2)nc1S(=O)(=O)c1ccc(Br)cc1	inactive: 74%
COc1ccc(-c2nnc(SCC(=O)Oc3cccc(C)c3C)o2)cc1	inactive: 65%
O=C(Nc1ccccc1)c1ccncc1	inactive: 97%
CCOc1ccccc1CNC(=O)CSc1n[nH]c(-c2ccccc2Cl)n1	inactive: 82%
COc1ccc(CNC(=O)Cc2coc3ccc(C(C)C)cc23)cc1	inactive: 79%
Cc1cc(C)c(S(=O)(=O)NCC(c2ccc(N(C)C)cc2)N2CCc3ccccc32)c(C)c1 (stereo unspecified)	inactive: 92%
Cc1cc(Nc2cc(Cl)ccc2C)n2nc(Cc3ccccc3)nc2n1	inactive: 50%

SMILES	survival
Cc1ccc(C)c(CN2C(=O)c3ccccc3S(=O)(=O)c3ccc(C(=O)N4CCN(C)CC4)cc32)c1	inactive: 87%
O=C(CN1C(=O)COc2ccc(S(=O)(=O)N3CCCCC3)cc21)NCc1ccccc1Cl	inactive: 92%
CCC(=O)Nc1nc(C)c(-c2csc(Nc3ccc(S(N)(=O)=O)cc3)n2)s1	inactive: 114%
CN(C)CCCN1C(=O)C2CCc3[nH]c4ccccc4c3C2C1=O (stereo unspecified)	inactive: 74%
COc1ccc(-n2cc(C(=O)NCc3ccc(Cl)cc3)c3ccccc3c2=O)cc1	inactive: 102%
CCOC(=O)C1=C(CN2CCN(c3cc(C)ccc3C)CC2)NC(=O)NC1c1ccccc1 (stereo unspecified)	inactive: 80%
O=S(=O)(c1cc(Cl)ccc1Cl)N1CCCC1	inactive: 95%
COc1ccc(N(C(=O)c2ccccc2C)S(=O)(=O)c2ccc(C)cc2)cc1	inactive: 70%
Cc1ccc2c(c1)c1c(c(=O)n(-c3ccccc3)c(=O)n1CC(=O)NCCC1=CCCCC1)n2C	inactive: 98%
CCOC(=O)c1cc(-c2ccc(C)cc2)n(CC(=O)Nc2ccc(OC)c(Cl)c2)c1C	inactive: 67%
Cc1ccc(CCNC(=O)c2cc3sccc3n2Cc2ccc(Cl)cc2)cc1	inactive: 79%
COc1ccccc1Oc1nc2c(C)cccn2c(=O)c1/C=C(\C#N)c1nc2ccccc2[nH]1	inactive: 71%
Cc1nn(CC(=O)NCc2cccc(F)c2)c(=O)c2c(C)n(-c3ccc(Cl)cc3)nc12	inactive: 102%
CCCCCOC(=O)c1ccc(Nc2nc(C(=O)OCC)nc3ccccc23)cc1	inactive: 60%
Cc1ccc(C(C)C)c(OCC(=O)Nc2nc3c(s2)CCCC3)c1	inactive: 91%
COc1ccc(S(=O)(=O)Nc2cc(-c3cn4cccc(C)c4n3)ccc2C)cc1C	active: 53%
COc1ccc(NC(=O)CN2C(=O)C(C)Oc3ccccc32)cc1 (stereo unspecified)	inactive: 89%
Cc1coc2c1c(C)cc1oc(=O)c(CC(=O)NCc3ccc(Cl)cc3)c(C)c12	inactive: 63%
COc1cccc(CN2C(=O)C3(SCC(=O)N3c3cc(C)cc(C)c3)c3ccccc32)c1 (stereo unspecified)	inactive: 71%

SMILES	survival
O=C(c1ccc2c(c1)OCCO2)N(Cc1cccnc1)c1nc2ccc(Cl)cc2s1	inactive: 95%
CCc1ccc2oc(C(=O)NCCc3ccc(OC)c(OC)c3)cc(=O)c2c1	inactive: 52%
COc1ccccc1N1CCN(S(=O)(=O)c2cc(-c3cc(C)no3)ccc2C)CC1	inactive: 81%
CCC(C)NC(=O)c1ccccc1NC(=O)C1CCN(S(=O)(=O)Cc2ccccc2)CC1 (stereo unspecified)	inactive: 74%
Cc1ccc(-c2nnn(CC(=O)N(CC(=O)NCCC(C)C)c3ccc(F)cc3)n2)cc1	active: 41%
COc1ccc(-c2nc(S(=O)(=O)c3ccccc3)c(N3CCCCC3)o2)cc1	inactive: 74%
CCN(Cc1nc(-c2ccc(OC)cc2)oc1C)S(=O)(=O)c1ccc(Cl)cc1	inactive: 95%
Cc1ccc(C)c(OCCCn2c(-c3ccc(Cl)cc3)nc3ccccc3c2=O)c1	inactive: 67%
COc1ccc(N2CCN(C(=O)c3cccn4c(=O)c5ccc(Cl)cc5nc34)CC2)cc1	inactive: 113%
Cc1cccc(NC(=O)c2ccc(F)c(S(=O)(=O)N(C)C3CCCCC3)c2)c1	inactive: 64%
CCOc1ccc(C(=O)N2CCN(Cc3cc(=O)n4nc(-c5cccc(OC)c5)sc4n3)CC2)cc1	inactive: 90%
CC(=O)Nc1ccc(Nc2nc3ccc(C)cc3n3nnnc23)cc1	inactive: 94%
CCOCCCNC(=O)C(c1ccc(Cl)cc1)N(Cc1ccc2c(c1)OCO2)C(=O)c1ccccc1O (stereo unspecified)	inactive: 54%
COc1ccc(NC(=O)C(C)n2nc(C)c3c(C)n(-c4ccccc4)nc3c2=O)cc1Cl (stereo unspecified)	inactive: 105%
O=C(COc1ccc(Br)cc1)N1CCOCC1	inactive: 108%
CCc1cccc(C)c1NC(=O)COCc1cc(-c2ccc3c(c2)OCO3)on1	inactive: 101%
CCc1ccccc1NC(=O)C(=O)c1cc(C)n(-c2ccccc2F)c1C	inactive: 87%
Cc1cc(C)c(Cn2c(C)c(CNCc3ccccc3C)c(C(=O)O)c2C)c(C)c1	inactive: 70%
